The list shows a part of the results.
Columns and labels:
Test in all cases: glycan array binding signal (z-score within array); higher = stronger binding
Details in all cases: glycan notation: IUPAC condensed, linker removed
[1] = target: GlcNAc(b1-3)Gal(b1-4)GlcNAc(b1-3)Gal(b1-4)GlcNAc(b1-2)Man(a1-3)[GlcNAc(b1-3)Gal(b1-4)GlcNAc(b1-3)Gal(b1-4)GlcNAc(b1-2)Man(a1-6)]Man(b1-4)GlcNAc(b1-4)[Fuc(a1-6)]GlcNAc
How it was run: (§1)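 Glycan array data were curated from 3228 arrays in the Consortium for Functional Glycomics database and kept only where the protein sequence was available. Glycan names were converted to IUPAC-condensed notation, and columns mapping to the same glycan were averaged. The binding signal is a within-array Z-score, averaged across arrays of the same protein sequence at different concentrations or buffers and across linkers. Negative Z-scores can be read as non-binding.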

[2] = target: GlcNAc(b1-3)Gal(b1-4)GlcNAc(b1-3)Gal(b1-4)GlcNAc(b1-2)[GlcNAc(b1-3)Gal(b1-4)GlcNAc(b1-3)Gal(b1-4)GlcNAc(b1-6)]Man(a1-6)[GlcNAc(b1-3)Gal(b1-4)GlcNAc(b1-3)Gal(b1-4)GlcNAc(b1-2)Man(a1-3)]Man(b1-4)GlcNAc(b1-4)[Fuc(a1-6)]GlcNAc
How it was run: as §1

[3] = target: GlcNAc(b1-3)Gal(b1-4)GlcNAc(b1-3)Gal(b1-4)GlcNAc(b1-3)Gal(b1-4)GlcNAc(b1-2)Man(a1-3)[GlcNAc(b1-3)Gal(b1-4)GlcNAc(b1-3)Gal(b1-4)GlcNAc(b1-3)Gal(b1-4)GlcNAc(b1-2)Man(a1-6)]Man(b1-4)GlcNAc(b1-4)GlcNAc
How it was run: as §1

[4] = target: GlcNAc(b1-3)Gal(b1-4)GlcNAc(b1-3)Gal(b1-4)GlcNAc(b1-3)Gal(b1-4)GlcNAc(b1-2)Man(a1-3)[GlcNAc(b1-3)Gal(b1-4)GlcNAc(b1-3)Gal(b1-4)GlcNAc(b1-3)Gal(b1-4)GlcNAc(b1-2)Man(a1-6)]Man(b1-4)GlcNAc(b1-4)[Fuc(a1-6)]GlcNAc
How it was run: as §1

[5] = target: GlcNAc(b1-3)Gal(b1-4)GlcNAc(b1-3)Gal(b1-4)GlcNAc(b1-3)Gal(b1-4)GlcNAc(b1-2)[GlcNAc(b1-3)Gal(b1-4)GlcNAc(b1-3)Gal(b1-4)GlcNAc(b1-3)Gal(b1-4)GlcNAc(b1-6)]Man(a1-6)[GlcNAc(b1-3)Gal(b1-4)GlcNAc(b1-3)Gal(b1-4)GlcNAc(b1-3)Gal(b1-4)GlcNAc(b1-2)Man(a1-3)]Man(b1-4)GlcNAc(b1-4)[Fuc(a1-6)]GlcNAc
How it was run: as §1

[6] = target: GlcNAc(b1-3)Gal(b1-4)GlcNAc(b1-3)Gal(b1-4)GlcNAc(b1-3)Gal(b1-4)GlcNAc(b1-3)Gal(b1-4)GlcNAc(b1-2)Man(a1-3)[GlcNAc(b1-3)Gal(b1-4)GlcNAc(b1-3)Gal(b1-4)GlcNAc(b1-3)Gal(b1-4)GlcNAc(b1-3)Gal(b1-4)GlcNAc(b1-2)Man(a1-6)]Man(b1-4)GlcNAc(b1-4)GlcNAc
How it was run: as §1

[7] = target: GlcNAc(b1-3)Gal(b1-4)GlcNAc(b1-3)Gal(b1-4)GlcNAc(b1-3)Gal(b1-4)GlcNAc(b1-3)Gal(b1-4)GlcNAc(b1-2)Man(a1-3)[GlcNAc(b1-3)Gal(b1-4)GlcNAc(b1-3)Gal(b1-4)GlcNAc(b1-3)Gal(b1-4)GlcNAc(b1-3)Gal(b1-4)GlcNAc(b1-2)Man(a1-6)]Man(b1-4)GlcNAc(b1-4)[Fuc(a1-6)]GlcNAc
How it was run: as §1

[8] = target: GlcNAc(b1-3)Gal(b1-4)GlcNAc(b1-3)Gal(b1-4)GlcNAc(b1-3)Gal(b1-4)GlcNAc(b1-3)Gal(b1-4)GlcNAc(b1-2)[GlcNAc(b1-3)Gal(b1-4)GlcNAc(b1-3)Gal(b1-4)GlcNAc(b1-3)Gal(b1-4)GlcNAc(b1-3)Gal(b1-4)GlcNAc(b1-6)]Man(a1-6)[GlcNAc(b1-3)Gal(b1-4)GlcNAc(b1-3)Gal(b1-4)GlcNAc(b1-3)Gal(b1-4)GlcNAc(b1-3)Gal(b1-4)GlcNAc(b1-2)Man(a1-3)]Man(b1-4)GlcNAc(b1-4)[Fuc(a1-6)]GlcNAc
How it was run: as §1

[9] = target: GlcNAc(b1-3)Gal(b1-4)GlcNAc(b1-3)Gal(b1-4)GlcNAc(b1-3)GalNAc
How it was run: as §1

[10] = target: GlcNAc(b1-3)Gal(b1-4)GlcNAc(b1-3)GalNAc
How it was run: as §1

[11] = target: GlcNAc(b1-3)Gal(b1-4)GlcNAc(b1-3)[GlcNAc(b1-3)Gal(b1-4)GlcNAc(b1-3)]GalNAc
How it was run: as §1

[12] = target: GlcNAc(b1-3)Gal(b1-4)GlcNAc(b1-6)[Gal(b1-3)]GalNAc
How it was run: as §1

[13] = target: GlcNAc(b1-3)Gal(b1-4)GlcNAc(b1-6)[GlcNAc(b1-3)Gal(b1-3)]GalNAc
How it was run: as §1

[14] = target: GlcNAc(b1-3)Gal(b1-4)GlcNAc(b1-6)[GlcNAc(b1-3)]Gal(b1-4)GlcNAc
How it was run: as §1

GlcNAc(b1-3)GalNAc = target: GlcNAc(b1-3)GalNAc
How it was run: as §1

GlcNAc(b1-3)Man = target: GlcNAc(b1-3)Man
How it was run: as §1

[15] = target: GlcNAc(b1-3)[GlcNAc(b1-4)][GlcNAc(b1-6)]GlcNAc
How it was run: as §1

[16] = target: GlcNAc(b1-3)[GlcNAc(b1-6)]Gal(b1-4)GlcNAc
How it was run: as §1

[17] = target: GlcNAc(b1-3)[GlcNAc(b1-6)]GalNAc
How it was run: as §1

[18] = target: GlcNAc(b1-4)Gal(b1-4)GlcNAc
How it was run: as §1

GlcNAc(b1-4)GlcNAc = target: GlcNAc(b1-4)GlcNAc
How it was run: as §1

[19] = target: GlcNAc(b1-4)GlcNAc(b1-4)GlcNAc
How it was run: as §1

[20] = target: GlcNAc(b1-4)GlcNAc(b1-4)GlcNAc(b1-4)GlcNAc(b1-4)GlcNAc
How it was run: as §1

B1: CBM40 CPF071 (Clostridium perfringens) (protein)
chain: MAHHHHHHVGTGSNDDDDKSPDPMLSSLGEYKDINLESSNASNITYDLEKYKNLDEGTIVVRFNSKDSKIQSLLGISNSKTKNGYFNFYVTNSRVGFELRNQKNEGNTQNGTENLVHMYKDVALNDGDNTVALKIEKNKGYKLFLNGKMIKEVKDTNTKFLNNIENLDSAFIGKTNRYGQSNEYNFKGNIGFMNIYNEPLGDDYLLSKTGETK
glycan array binding signal (z-score) [1]: -0.411
glycan array binding signal (z-score) [2]: -0.486
glycan array binding signal (z-score) [3]: -0.435
glycan array binding signal (z-score) [4]: 0.669
glycan array binding signal (z-score) [5]: -0.373
glycan array binding signal (z-score) [6]: -0.117
glycan array binding signal (z-score) [7]: -0.108
glycan array binding signal (z-score) [8]: -0.429
glycan array binding signal (z-score) [9]: -0.406
glycan array binding signal (z-score) [10]: 0.772
glycan array binding signal (z-score) [11]: -0.403
glycan array binding signal (z-score) [12]: -0.246
glycan array binding signal (z-score) [13]: 0.157
glycan array binding signal (z-score) [14]: -0.324
glycan array binding signal (z-score) (GlcNAc(b1-3)GalNAc): -0.408
glycan array binding signal (z-score) (GlcNAc(b1-3)Man): 0.136
glycan array binding signal (z-score) [15]: 0.522
glycan array binding signal (z-score) [16]: -0.146
glycan array binding signal (z-score) [17]: -0.025
glycan array binding signal (z-score) [18]: 1.02
glycan array binding signal (z-score) (GlcNAc(b1-4)GlcNAc): 0.137
glycan array binding signal (z-score) [19]: -0.427
glycan array binding signal (z-score) [20]: 0.01
